Laboratory results: PubChem BioAssay (NCATS)
The inconclusive results got no clear call from the source; some entries with a clear call stand among them for comparison. For some assays here: No potency is given beside an inconclusive call; the fits are too rough. Calls of active or inactive are those of the source. Unless noted, the call rests on the fitted dose curve; in most records, active means well fitted curve in the direction sought with a large enough effect; inconclusive means small, poorly fitted or top-dose-only effect, or another doubt; inactive means no such curve, though single readings can be large; an effect the other way counts as inactive or inconclusive.

What was measured:
[1] = target: N-terminal Xaa-Pro-Lys N-methyltransferase 1 (Homo sapiens) (UniProt Q9BV86); experiment: Confirmatory qHTS for Inhibitors of N-terminal methyltransferase 1 (NTMT1): MTaseGlo Assay (AID 1645874); further: potency means the concentration at half of the fitted maximal effect; nearly all actives have a fitted effect of over 65% in size
Method in brief: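 qHTS format: NTMT1 125 nM, SAM 100 uM, peptide SPKRIA 1 uM final; 15 min compound preincubation, 30 min reaction at room temperature. MTase-Glo luminescence.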

[2] = target: Rap guanine nucleotide exchange factor 3 (Homo sapiens) (UniProt O95398); experiment: Confirmatory qHTS for antagonist of cAMP-regulated guanine nucleotide exchange factor 3 (EPAC1) (AID 1645880); further: potency means the concentration at half of the fitted maximal effect; nearly all actives have a fitted effect of over 55% in size
Method in brief: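 Nucleotide exchange uses 100 nM EPAC1, 250 nM RAP1B-BODIPY-GDP and 50 uM GDP, with compounds in a concentration-titration series. After 5 min at room temperature, fluorescence (480 nm ex/540 nm em) is read every 5 min for 30 min. Data are normalized to control ATA and DMSO.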

[3] = target: Rap guanine nucleotide exchange factor 3 (Homo sapiens) (UniProt O95398); experiment: Counterscreen qHTS for agonist of cAMP-regulated guanine nucleotide exchange factor 3 (EPAC1) (AID 1645889); further: potency means the concentration at half of the fitted maximal effect; nearly all actives have a fitted effect of over 40% in size
Method in brief: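 Rap1B-BODIPY-GDP 250 nM + GDP 50 uM; cpds 7-pt, final 9.74 nM–152 uM (activator mode) or from 7.32 nM upwards (inhibitor mode); RT; FI 480/540 nm at 5 and 30 min, then ± cAMP, reread.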

[4] = Primary qHTS for small molecule stabilizers of the endoplasmic reticulum resident proteome: Secreted ER Calcium Modulated Protein (SERCaMP) assay (AID 1508630); conditions: SH-SY5Y GLuc-SERCaMP (Gaussia luciferase released on ER calcium loss) secretion, thapsigargin, luminescence; activity change, negative = inhibition: at 38.4 µM (top of the series); further: potency means the concentration at half of the fitted maximal effect; on activity change, negative = inhibition: on the % scale 0 is the no-effect control and ±100 the full control effect
Method in brief: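 GLuc-SERCaMP-expressing SH-SY5Y cells, pretreated 16 h with compound, are challenged with thapsigargin to empty ER calcium stores; after 4 h, coelenterazine is added directly to the medium and luminescence is imaged.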

[5] = Cell Viability qHTS for small molecule stabilizers of the endoplasmic reticulum resident proteome (AID 1508629); conditions: cell viability counter-screen, 100 nM thapsigargin for final 4 h;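 further: compound exposure about 46 h in total before the viability read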; further: potency means the concentration at half of the fitted maximal effect;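 on max response: human SH-SY5Y neuroblastoma cells carrying the GLuc-SERCaMP reporter; on the % scale 0 is the no-effect control and ±100 the full control effect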
[6] = A High-Content qHTS Against Drug Library for the Identification of Small Molecules that Inhibit DYT1 Early Onset Primary Dystonia-Associated Cell Pathology (AID 1645839; calls by dose curve; further: potency means the concentration at half of the fitted maximal effect)
Method in brief: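 In this high-content image screen, delE TorsinA mislocalization in inducible Flp-In 293 cells is scored as %pathology, with cell count serving as the counterscreen. Compound exposure lasts 48 h under tetracycline induction in reduced-serum medium.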

[7] = Primary qHTS for inhibitors of nuclear receptor binding SET domain protein 2 (NSD2) in an isogenic RCH-ACV NSD2 p.E1099K mutant (9B) (AID 1645876); further: potency means the concentration at half of the fitted maximal effect; nearly all actives have a fitted effect of over 70% in size
[8] = Primary qHTS for inhibitors of nuclear receptor binding SET domain protein 2 (NSD2) in an RCH-ACV wild type WT cells (2C) (AID 1645877); conditions: activity change, negative = cell killing: at 44.9 µM (top of the series) unless noted; further: potency means the concentration at half of the fitted maximal effect; nearly all actives have a fitted effect of over 70% in size
[9] = target: Calcium and integrin-binding protein 1 (Homo sapiens) (UniProt Q99828); experiment: Primary qHTS for Identification of Calcium Integrin Binding Protein 1 (CIB1) Competitor (AID 1508620); further: potency means the concentration at half of the fitted maximal effect
Method in brief: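 CIB1-GST (1 uM final) and compound incubated 15 min at room temperature before adding FITC-alphaIIb peptide tracer (100 nM final). Competition for binding read by fluorescence polarization (ex 480, em 540) after another 15 min at room temperature.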

[10] = Confirmatory qHTS for small molecule stabilizers of the endoplasmic reticulum resident proteome: Secreted ER Calcium Modulated Protein (SERCaMP) assay (AID 1508628); further: nearly all actives have a fitted effect of over 40% in size; further: potency means the concentration at half of the fitted maximal effect
Method in brief: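 SH-SY5Y cells stably expressing GLuc-SERCaMP, treated 16 h with compound (primary 1.53, 7.67, 38.3 uM; confirmation 11 concentrations, up to 76.6 uM), then 100 nM thapsigargin for 4 h. Secreted Gaussia luciferase in medium read by coelenterazine luminescence.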

[11] = NCATS anti-infectives library activity on HEK293 viability as a counter-qHTS vs the C. elegans viability qHTS (AID 1745854);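 further: potency means the concentration at half of the fitted maximal effect; HEK293 cells exposed to compounds for 24 hr before the viability read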
Method in brief: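 HEK293 cells (1,500/well) exposed 24 hr at 37C to 1:5 titrations, up to 41.7 uM final; counter-screen to a C. elegans viability qHTS. Viability by CellTiter-Glo luminescence after 10 min at room temperature; digitonin as control.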

[12] = target: Cytochrome P450 2D6 (Homo sapiens) (UniProt P10635); experiment: Cytochrome P450 family 2 subfamily D member 6 (CYP2D6) small molecule antagonists: luciferase biochemical (cell-free) qHTS assay (AID 1645840; active means well fitted curve in the direction sought with a large enough effect in the repeat runs; inconclusive means weak or mixed curves; inactive means no such curve, though single readings can be large; an effect the other way counts as inactive or inconclusive; further: on the % scale 0 is the no-effect control and ±100 the full control effect; nearly all actives have a fitted effect of over 55% in size)
Method in brief: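 P450-Glo luminescent screen: recombinant CYP2D6 enzyme–proluciferin substrate mix preincubated with compound 10 min at room temperature, then NADPH regeneration added for 1 h at room temperature. Detection reagent added for 20 min; luciferin light read as relative luminescence units.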

[13] = target: Cytochrome P450 2C9 (Homo sapiens) (UniProt P11712); experiment: Cytochrome P450 family 2 subfamily C member 9 (CYP2C9) small molecule antagonists: luciferase biochemical (cell-free) qHTS assay (AID 1645842; active means well fitted curve in the direction sought with a large enough effect in the repeat runs; inconclusive means weak or mixed curves; inactive means no such curve, though single readings can be large; an effect the other way counts as inactive or inconclusive; further: on the % scale 0 is the no-effect control and ±100 the full control effect; nearly all actives have a fitted effect of over 55% in size)
Method in brief: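 Luminescence, after 20 min with luciferin detection reagent, reflected CYP2C9 turnover during a 1 h NADPH-driven reaction at 37C. Enzyme-substrate mix contained 0.4% bovine serum albumin and was preincubated with compound 10 min at room temperature.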
Tags describe the fitted curve by direction and shape.

Sequence of UniProt Q9BV86 (Q9BV86 whole entry, looked up): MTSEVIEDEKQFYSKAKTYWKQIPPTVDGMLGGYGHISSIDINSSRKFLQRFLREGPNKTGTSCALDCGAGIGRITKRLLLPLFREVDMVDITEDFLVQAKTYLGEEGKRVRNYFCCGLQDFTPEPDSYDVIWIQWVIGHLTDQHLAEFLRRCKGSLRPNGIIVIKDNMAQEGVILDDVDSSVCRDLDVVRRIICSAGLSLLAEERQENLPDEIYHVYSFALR
Sequence of UniProt Q99828 (Q99828 whole entry, looked up): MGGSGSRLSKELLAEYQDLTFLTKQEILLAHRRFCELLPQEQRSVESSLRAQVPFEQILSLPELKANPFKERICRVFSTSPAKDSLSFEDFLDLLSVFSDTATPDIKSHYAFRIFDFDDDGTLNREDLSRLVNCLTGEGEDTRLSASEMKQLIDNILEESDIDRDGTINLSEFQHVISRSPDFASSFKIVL
Sequence of UniProt P10635 (P10635 whole entry, looked up): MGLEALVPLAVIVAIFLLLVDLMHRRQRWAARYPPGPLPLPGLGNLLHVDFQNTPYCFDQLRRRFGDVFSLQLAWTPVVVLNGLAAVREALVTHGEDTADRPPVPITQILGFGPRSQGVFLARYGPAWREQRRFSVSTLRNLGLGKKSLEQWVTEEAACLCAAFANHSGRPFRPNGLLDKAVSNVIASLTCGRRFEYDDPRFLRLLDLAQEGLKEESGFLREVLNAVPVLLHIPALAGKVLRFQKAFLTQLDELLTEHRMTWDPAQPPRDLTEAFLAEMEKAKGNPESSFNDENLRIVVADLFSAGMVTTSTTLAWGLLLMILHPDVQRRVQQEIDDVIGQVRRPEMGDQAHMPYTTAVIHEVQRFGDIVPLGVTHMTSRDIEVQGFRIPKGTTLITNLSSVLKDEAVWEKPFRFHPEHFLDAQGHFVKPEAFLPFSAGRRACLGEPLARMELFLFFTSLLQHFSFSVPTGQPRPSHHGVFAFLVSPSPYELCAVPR
Sequence of UniProt O95398 (O95398 whole entry, looked up): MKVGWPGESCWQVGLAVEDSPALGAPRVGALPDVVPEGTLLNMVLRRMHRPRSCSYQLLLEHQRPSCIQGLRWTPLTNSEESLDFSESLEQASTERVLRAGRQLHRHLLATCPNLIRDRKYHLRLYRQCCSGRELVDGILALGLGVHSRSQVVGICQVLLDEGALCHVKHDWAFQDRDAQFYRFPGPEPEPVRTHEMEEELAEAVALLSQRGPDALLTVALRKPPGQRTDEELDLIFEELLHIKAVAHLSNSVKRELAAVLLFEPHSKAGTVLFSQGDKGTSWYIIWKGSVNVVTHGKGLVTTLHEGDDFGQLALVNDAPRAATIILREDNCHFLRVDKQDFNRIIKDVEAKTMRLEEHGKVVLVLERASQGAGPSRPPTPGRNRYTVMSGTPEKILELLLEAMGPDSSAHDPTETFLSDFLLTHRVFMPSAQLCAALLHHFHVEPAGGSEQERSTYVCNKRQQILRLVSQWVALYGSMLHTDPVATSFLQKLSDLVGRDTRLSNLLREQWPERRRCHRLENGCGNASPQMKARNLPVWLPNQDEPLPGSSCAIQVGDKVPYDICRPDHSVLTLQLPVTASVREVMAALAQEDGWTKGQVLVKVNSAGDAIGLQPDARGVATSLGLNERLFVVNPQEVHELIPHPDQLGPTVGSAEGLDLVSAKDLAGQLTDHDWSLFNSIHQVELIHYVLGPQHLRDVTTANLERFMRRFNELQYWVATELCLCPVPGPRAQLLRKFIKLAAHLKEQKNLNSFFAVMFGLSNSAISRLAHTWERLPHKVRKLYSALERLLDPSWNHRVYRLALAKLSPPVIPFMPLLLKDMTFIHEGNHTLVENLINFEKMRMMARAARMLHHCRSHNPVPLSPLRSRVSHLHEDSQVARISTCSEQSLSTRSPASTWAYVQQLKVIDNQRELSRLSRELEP
Sequence of UniProt P11712 (P11712 whole entry, looked up): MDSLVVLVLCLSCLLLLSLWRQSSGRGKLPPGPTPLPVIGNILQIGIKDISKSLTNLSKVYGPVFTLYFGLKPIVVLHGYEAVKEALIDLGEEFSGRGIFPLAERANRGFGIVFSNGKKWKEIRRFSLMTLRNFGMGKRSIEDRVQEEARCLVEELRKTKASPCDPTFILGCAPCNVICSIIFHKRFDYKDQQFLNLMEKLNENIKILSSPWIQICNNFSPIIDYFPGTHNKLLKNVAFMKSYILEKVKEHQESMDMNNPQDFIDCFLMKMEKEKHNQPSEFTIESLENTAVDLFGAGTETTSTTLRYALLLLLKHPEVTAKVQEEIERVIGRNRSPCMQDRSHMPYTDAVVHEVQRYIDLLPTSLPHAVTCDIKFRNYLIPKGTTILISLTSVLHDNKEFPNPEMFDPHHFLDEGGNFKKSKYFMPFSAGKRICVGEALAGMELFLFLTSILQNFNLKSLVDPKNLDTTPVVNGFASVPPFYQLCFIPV

## NC(=NCCCCCCN=C(N)/N=C(\N)Nc1ccc(Cl)cc1)/N=C(\N)Nc1ccc(Cl)cc1
[1]
  Potency: inconclusive [inhibitor, partial curve]

## Cc1cc2c(C(C)C)c(O)c(O)c(C=O)c2c(O)c1-c1c(C)cc2c(C(C)C)c(O)c(O)c(C=O)c2c1O
[1]
  Potency: inconclusive [inhibitor, partial curve]

## Cc1cc2nc3c(=O)[nH]c(=O)nc-3n(C[C@H](O)[C@H](O)[C@H](O)CO)c2cc1C
[2]
  Potency: inconclusive [inhibitor, single point]

## COc1cccc2c1C(=O)c1c(O)c3c(c(O)c1C2=O)C[C@@](O)(C(C)=O)C[C@@H]3O[C@H]1C[C@H](N)[C@H](O)[C@H](C)O1
[3]
  Potency: active: 14.1 µM

## OCC(O)C(O)C(O)CO (stereo not drawn)
[4]
  Potency: inactive

## O=C(CCCN1CCN(c2ccc(F)cc2)CC1)NC1c2ccccc2CSc2ccccc21 (stereo not drawn)
[5]
  Potency: active: 25.1 µM
[6]
  Potency: inconclusive [inhibitor, partial curve, poor fit]
[7]
  Potency: inconclusive [inhibitor, partial curve]
[8]
  Potency: inconclusive [inhibitor, partial curve]

## CCOc1ccc2nc3cc(N)ccc3c(N)c2c1
[9]
  Potency: active: 44.7 µM
[7]
  Potency: active: 5.96 µM

## Cc1c(O)cccc1C(=O)N[C@@H](CSc1ccccc1)[C@H](O)CN1C[C@H]2CCCC[C@H]2C[C@H]1C(=O)NC(C)(C)C
[10]
  Potency: active: 11.2 µM
[5]
  max response: inactive: 7.19%
[4]
  Potency: inconclusive [inhibitor, partial curve, poor fit]
[6]
  Potency: inconclusive [inhibitor, full curve, poor fit]
[11]
  Potency: inconclusive [cytotoxic, partial curve, poor fit]

## Nc1cccc2c1C(=O)N(C1CCC(=O)NC1=O)C2=O (stereo not drawn)
[9]
  Potency: inconclusive [inhibitor, partial curve]
[7]
  Potency: inconclusive [inhibitor, full curve]
[8]
  Potency: inconclusive [inhibitor, full curve]

## CCCCCCCCCCCCCCCCCC(=O)OCC(O)CO (stereo not drawn)
[10]
  Potency: inactive
[5]
  max response: inactive: 15.4%
[12]
  Potency: inactive
[13]
  Potency: inactive
